Reference: the supplement of paper PMC12217912
The list shows a part of the results. Sequences were assembled here from the parent chain. Inactive controls read about 0.05.

B1: TEV protease; numbered along this chain (parent)
chain: MGESLFKGPRDYNPISSSICHLTNESDGHTTSLYGIGFGPFIITNKHLFRRNNGTLVVQSLHGVFKVKDTTTLQQHLVDGRDMIIIRMPKDFPPFPQKLKFREPQREERICLVTTNFQTKSMSSMVSDTSCTFPSGDGIFWKHWIQTKDGQCGSPLVSTRDGFIVGIHSASNFTNTNNYFTSVPKNFMELLTNQEAQQWVSGWRLNADSVLWGGHKVFMVKPEEPFQPVKEATQL

Variants of: B1
Assay: raw area under fraction-flipped curve 0-4 h after induction (AUC4h, not background-subtracted), DNA-recorder readout of cleavage of the substrate (dimensionless); higher = more cleavage of the substrate by the protease variant
Settings: temperature: 34 °C; time window: 0-4 h after rhamnose induction
Experimental: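 In vivo DNA recorder in E. coli TOP10(DE3) ΔrhaA at 34 °C. Each TEVp single-site mutant (parent TEVp 0) is paired with a single-site variant of the 7-mer TEVs (canonical ENLYFQ|S). The substrate sits between flexible linkers in a Bxb1-sfGFP-TEVs-SsrA fusion, so cleavage stabilises Bxb1 and speeds flipping of a recombination array, read by NGS. The value is the raw area under the fraction-flipped curve over 0-4 h after rhamnose induction (AUC4h), with ≥20 reads per time point. It is not background-subtracted; inactive controls average about 0.047.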
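Further: Bxb1 expression induced with 0.2% (w/v) L-rhamnose at OD600 near 0.5, cultures sampled hourly, flipped fraction per protease–substrate barcode pair counted by paired-end Illumina sequencing.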

| Variant | area with substrate EALYFQS | area with substrate ECLYFQS | area with substrate EELYFQS | area with substrate EFLYFQS | area with substrate EGLYFQS | area with substrate EILYFQS | area with substrate EKLYFQS | area with substrate ELLYFQS | area with substrate EMLYFQS | area with substrate EQLYFQS | area with substrate ERLYFQS | area with substrate ESLYFQS | area with substrate ETLYFQS | area with substrate EVLYFQS | area with substrate EWLYFQS | area with substrate EDLYFQS | area with substrate EPLYFQS | area with substrate EYLYFQS | area with substrate EHLYFQS |
| --- | --- | --- | --- | --- | --- | --- | --- | --- | --- | --- | --- | --- | --- | --- | --- | --- | --- | --- | --- |
| I86F | 0.0776 | 0.101 | 0.0986 | 0.0828 | 0.0851 | 0.0849 | 0.0812 | 0.0768 | 0.0951 | 0.099 | 0.0806 | 0.088 | 0.1 | 0.0966 | 0.0727 |  |  |  |  |
| I86R | 0.0379 | 0.0416 | 0.0533 | 0.0407 |  | 0.033 |  | 0.0285 | 0.0439 | 0.0446 | 0.0403 |  |  | 0.0431 |  | 0.0682 |  |  |  |
| P89E | 0.0358 | 0.102 | 0.115 | 0.0877 | 0.0889 | 0.0949 | 0.106 |  | 0.109 | 0.0981 | 0.0921 | 0.0999 | 0.112 | 0.0854 | 0.0876 | 0.0963 | 0.0882 | 0.117 |  |
| P89F | 0.0972 | 0.0728 | 0.0682 | 0.0802 |  | 0.0742 |  |  |  | 0.0954 |  | 0.0555 |  | 0.0584 | 0.0756 |  | 0.076 | 0.064 | 0.0788 |
| P89W | 0.0773 | 0.0617 | 0.0461 | 0.0634 |  | 0.0544 | 0.0818 | 0.051 | 0 |  | 0.0793 | 0.071 | 0.0541 | 0.0687 | 0.0613 |  |  |  | 0.0857 |
| K90F | 0.119 | 0.115 | 0.145 |  |  | 0.0867 | 0.117 | 0.0841 |  | 0.118 |  | 0.0955 |  |  | 0.104 | 0.123 |  | 0.0867 |  |
| K90I | 0.118 | 0.107 | 0.156 | 0.0688 | 0.0551 | 0.0845 | 0.104 | 0.0997 | 0.0976 | 0.132 | 0.105 | 0.105 | 0.124 |  |  | 0.101 | 0.118 |  | 0.137 |
| D91C | 0.101 | 0.0729 |  |  | 0.0831 |  |  | 0.106 |  |  | 0.0913 |  |  |  |  | 0.121 |  | 0.0901 | 0.107 |
| F92T | 0.113 | 0.134 | 0.118 | 0.0977 | 0.0908 | 0.116 | 0.0779 | 0.0999 | 0.111 | 0.129 | 0.0933 | 0.082 |  |  |  | 0.127 |  |  |  |
| P94E | 0.135 | 0.121 | 0.119 | 0.0889 | 0.13 | 0.108 | 0.12 |  | 0.118 | 0.125 | 0.113 | 0.0961 |  | 0.125 |  |  |  |  | 0.104 |
| P94Q | 0.116 | 0.103 |  |  | 0.0935 | 0.0822 | 0.107 | 0.0694 |  | 0.105 |  | 0.094 | 0.153 | 0.104 |  | 0.112 | 0.131 |  |  |
| P94Y | 0.139 | 0.107 | 0.101 |  |  | 0.0883 | 0.107 | 0.0705 | 0.105 |  | 0.0909 | 0.106 |  |  | 0.0967 | 0.105 | 0.135 |  |  |
| F95R | 0.0752 | 0.0463 | 0.078 | 0.0668 | 0.0713 | 0.0554 | 0.0605 |  | 0.0727 | 0.0939 | 0.0843 | 0.066 |  |  | 0.0654 | 0.0937 |  |  | 0.078 |
